Assay results published in publication PMC12136788.
The list shows a part of the results.

B1: chr14:74942539:74942640:-|3pUTR|ENSG00000119630|msi1|total|mutant (ssRNA)
RNA: GGGAGUUCUACAGUCCGACGAUCGUGUAUUUAUUACCGUCACACUCUUCAGUGACUCCUGCUGGUACCUGCCCUCUAUUUAUCCGCCAACUGUUUCCCUGCUGAAUGCCUCGCUCCCUUCAAGACGAGGGGCAGGGAAGGACACAACAGAGGAUUGAGCAUCA
B2: ENSG00000075618:stop:overlap|stop_codon|ENSG00000075618|stop_codon|NA|stop_codon (ssRNA)
RNA: GGGAGUUCUACAGUCCGACGAUCACGCAGGCGUCCUGAAGGCCUCGGCGGAAACCGUGGACCCCGCCUCGCUCUGGGAGUACUAGGGCCGGCCCGUCCUUCCCCGCCCCUGCCCACAUGGCGGCUCCUGCCAACCCUCCCUGCCAACAGAGGAUUGAGCAUCA
B3: ENSG00000156687:stop:overlap|stop_codon|ENSG00000156687|stop_codon|NA|stop_codon (ssRNA)
RNA: GGGAGUUCUACAGUCCGACGAUCACAUUUCAGAAUCCCAGCUUGAUGAAGCCGACUUCAACUACAGCAGGCAAAAUGGACUCUAGUCCACUUCCUCCCAUGAGACAGAGUGAUGGCCAGCUUGGGGACAUUUGCUUUAAAUGGCAACAGAGGAUUGAGCAUCA
B4: chr10:69104613:69104714:+|3pUTR|ENSG00000122862|unk|FALSE|unique (ssRNA)
RNA: GGGAGUUCUACAGUCCGACGAUCACAUAUUUUACAGGGUGGAGUGUACUAUAUACUAUUACCUUUGAAUGUGUUUGCAGAGCUAGUGGAUGUGUUUGUCUACAAGUAUGAUUGCUGUUACAUAACACCCCAAAUUAACUCCCACAACAGAGGAUUGAGCAUCA
B5: chr16:56943551:56943652:+|3pUTR|ENSG00000051108|msi1|total|mutant (ssRNA)
RNA: GGGAGUUCUACAGUCCGACGAUCUGCAUGUCUAUGCUUGAGGAACUUUUCCAAAUGUGUGUGUCUGCAUGUGUGUUUGUACACCGAAGUCACCGAUGCAGAAGUGGUUCUGCUGGUACGAUUUGAUUCCUGUUGGAAUGUUUACAACAGAGGAUUGAGCAUCA
B6: chrX:131089436:131089558:+|3pUTR|ENSG00000147256|unk|total|mutant (ssRNA)
RNA: GGGAGUUCUACAGUCCGACGAUCGGGAAACCUCAAGUGCCGGUCUAAUCCGUGUUUCUGGGAUCCAAAGUCCGAGGAAAAUUCCGAUUUUAUUGCCUGGAUCUGCUUUAAAGACAAUUGGUGUUUACACCCUCUUGUCAGCAACAACAGAGGAUUGAGCAUCA
B7: chr17:82078764:82078865:-|3pUTR|ENSG00000169710|msi1_unk|total|mutant (ssRNA)
RNA: GGGAGUUCUACAGUCCGACGAUCCCGUGGGGUCUGCGCUUGGUCUUUCUGUGCUUGGAUUUGCAUAUUUAUUGCAUUGCUGGCCGAGACCCCCAGGCCUGUCCACCCUGCCAAGACUCCUCAGGCAGCGUGUGGGUCCCGCACCAACAGAGGAUUGAGCAUCA
B8: ENSG00000198589:be:win_5901|CDS|ENSG00000198589|bound_else_gene|NA|bound_elsewhere_windowed (ssRNA)
RNA: GGGAGUUCUACAGUCCGACGAUCCUGGGGAAAUUCUGCAGUGAGUCGUCCUCUUGAGUUCUGGCGCCUUGACUACUGGGAAGAUGACUUGCGGCGCCGGCGACGAUUUGUGCGUAACCCUCUAGGAUCGACACAUCCUGAAGCCAACAGAGGAUUGAGCAUCA
B9: chr2:205796339:205796442:+|3pUTR|ENSG00000118257|msi1|total|mutant (ssRNA)
RNA: GGGAGUUCUACAGUCCGACGAUCAAGUCCGCAAGUACUGUGGACAAGAAUGCUUAACCAUGCUGCUUCAGCCUUGAGAGACCCCGGUUCUUACACAUAUGCACACACGCAUACACACAUGCACGCACACACACAUACACACAUCAACAGAGGAUUGAGCAUCA
B10: chr8:42175503:42175666:-|3pUTR|ENSG00000104368|msi1|total|mutant (ssRNA)
RNA: GGGAGUUCUACAGUCCGACGAUCAUGAAAGCAUGUCUCAACCGUAAAAGAUAACAAGAUCUUUCAGGAAAGACGGAUUGCAUCCGAAACCGACAGUAUAUUUACCGUCACAAGAGCCCAGCAGGGCCUCAAAGUUGGGGCAGGCAACAGAGGAUUGAGCAUCA
B11: chr20:3963869:3963970:-|CDS|ENSG00000101236|unk|FALSE|bound_elsewhere (ssRNA)
RNA: GGGAGUUCUACAGUCCGACGAUCAAUCUGCCUCUCAACAUAUAUAUUGUGGUUUUUGGUACUGCUAUAUUUGUCUUCAUCCUUAGUUUACUCUUCUGUUGCUACUUGAUUAGGUAACCAAUUUUCAUUCUAUGUUACUUCAAACAACAGAGGAUUGAGCAUCA
B12: chr1:150648406:150648517:-|CDS|ENSG00000143457|unk|total|mutant (ssRNA)
RNA: GGGAGUUCUACAGUCCGACGAUCUCAGCGUAUGGACAAGCGAACACCCGCACUCCUGGUGCCCGCCCACUCCUCUGAUGUGCCCGAGAAUGUCUUCUCCUCUCUGACAGAUGACAAGUAUGAUGUGGCAAUGAAUCGAGCCAACAACAGAGGAUUGAGCAUCA
B13: chr3:15255350:15255451:-|3pUTR|ENSG00000131370|msi1|FALSE|unique (ssRNA)
RNA: GGGAGUUCUACAGUCCGACGAUCUGGGGUGGGAAAGGUGAAUGCCAGUGGGGAUGCGGGGGGAUGAGGGUAGGAGGGACUUAUAGAAGGGGAUUUGUGGCUGUGGGGGAGAAGGUUCUACAGCAUAAGCCUUAUCCUGCCAGCCAACAGAGGAUUGAGCAUCA
B14: chr15:42943230:42943331:-|3pUTR|ENSG00000159459|msi1|FALSE|unique (ssRNA)
RNA: GGGAGUUCUACAGUCCGACGAUCAUUAUGCUUAUGAAGUUUACUUACAAACAAGCAACUGAGUCACUUUAUUUUCUUUAGUGUAGUAUGUGAAGGCACUGGUUCAACAGGAUGGCUCCAGAACUGUGUUUUUCUAAUGUUUGGCAACAGAGGAUUGAGCAUCA
B15: chr20:31664451:31666086:-|three_prime_utr|ENSG00000171552|control|control|control (ssRNA)
RNA: GGGAGUUCUACAGUCCGACGAUCAUGCAGCCCAUGCCCACCUGCCCAUCACAGGGUUGGGCCCAGAUCUGGUCCCUUGCAGCUAGUUUUCUAGAAUUUAUCACACUUCUGUGAGACCCCCACACCUCAGUUCCCUUGGCCUCACAACAGAGGAUUGAGCAUCA
B16: chr10:17237356:17237519:+|3pUTR|ENSG00000026025|msi1_unk|total|mutant (ssRNA)
RNA: GGGAGUUCUACAGUCCGACGAUCAGACCGAUUUGGAACCGGAAUAAGCUCCCGUUCUUAACAACCGACACUCCUACAAGAUUCCGAAAAAAGUUUACAACAUAAUCCCGUUUACAGAAAAAUCUUGUGCCCGAAUACUUUUUACAACAGAGGAUUGAGCAUCA
B17: chr4:25747873:25747886:-|3pUTR|ENSG00000091490|msi1_unk|total|mutant (ssRNA)
RNA: GGGAGUUCUACAGUCCGACGAUCCCGCAGUUAUAAGGCACCUUGAAAUAAAUUGUUUGUGCCUGGAAAUGCAGGGAGGGCAACCGCUUUGUAAAUUGGUUUACAUUUUUCUCCUUGAAUUUUUCCCGGGUCCCCGUGCUUCCGCAACAGAGGAUUGAGCAUCA
B18: ENSG00000165672:stop:overlap|stop_codon|ENSG00000165672|stop_codon|NA|stop_codon (ssRNA)
RNA: GGGAGUUCUACAGUCCGACGAUCCUCCUACGAUCAAGCCAAGUCCAGCUGCUUCCAAAGAGUACUUUCAGAAGGUAAAUCAGUAGAUCACCCAUGUGUAUCUGCACCUUCUCAACUGAGAGAAGAACCACAGUUGAAACCUGCCAACAGAGGAUUGAGCAUCA
B19: chrX:107070192:107070425:-|CDS|ENSG00000089682|control|control|control (ssRNA)
RNA: GGGAGUUCUACAGUCCGACGAUCCGUUCUAGGAGCCAAAUGGCAGAAAAGGACUGGGAGGACCUCAACAUUUAGUAUUCUCUUAGUUUCCUUGCUUUCAGAAACAGUGUUCACAUCUUCAGCCAUGUAUGGCAUUCCCCAUCUCAACAGAGGAUUGAGCAUCA
B20: chr3:185917260:185917361:-|3pUTR|ENSG00000136527|msi1|FALSE|unique (ssRNA)
RNA: GGGAGUUCUACAGUCCGACGAUCUGGCAAAAAGCAACAAUAAACAGUUUGAUUUUUACUUUUCUUUCUAACAUAUCAAUGCUUAGCAGAACUAUUCAGAUUGUCAGUAGUAAAUUUAAAGACAAAUGCCCGUUUUCCUCCAGUCAACAGAGGAUUGAGCAUCA
B21: chr5:113567122:113567223:+|CDS|ENSG00000047188|unk|FALSE|bound_elsewhere (ssRNA)
RNA: GGGAGUUCUACAGUCCGACGAUCAAACUCUGAGAAUUGGGCUGUCGUUAAAGCUGCAUUGGUGGCAGGCAUGUAUCCUAAUUUAGUCCACGUGGACAGAGAGAAUCUAGUGUUGACAGGGCCAAAGGAGAAAAAAGUACGAUUCAACAGAGGAUUGAGCAUCA
B22: chr7:44064065:44064166:+|3pUTR|ENSG00000136279|msi1|total|mutant (ssRNA)
RNA: GGGAGUUCUACAGUCCGACGAUCGCACACCCUUCCCGCCUUUCCAGGACUCAACAAGCUUUAAGGUCAUUCAGAUGCUAAUUCCGACUGCCCUUGUGUCAGAAUACUAAGGUGGGAGGCGGAGCGGAGGUGCCAGUCACUCUGCAACAGAGGAUUGAGCAUCA

Each binder was assayed against MSI1 full-length (mouse, UniProt Q61474 1-362) (assay: nsRBNS (natural sequence RNA bind-n-seq); RBNS binding buffer (assumed for nsRBNS): 25 mM Tris pH 7.5, 150 mM KCl, 3 mM MgCl2, 0.01% Triton X-100, 500 ug/ml BSA, 20 U/ml SUPERase-In, 4 C; UNK is unkempt and MSI1 is Musashi-1; names of the RNAs are library labels; protein concentration not given here; high values mean tight binding).
Sequence of UniProt Q61474 (Q61474 whole entry): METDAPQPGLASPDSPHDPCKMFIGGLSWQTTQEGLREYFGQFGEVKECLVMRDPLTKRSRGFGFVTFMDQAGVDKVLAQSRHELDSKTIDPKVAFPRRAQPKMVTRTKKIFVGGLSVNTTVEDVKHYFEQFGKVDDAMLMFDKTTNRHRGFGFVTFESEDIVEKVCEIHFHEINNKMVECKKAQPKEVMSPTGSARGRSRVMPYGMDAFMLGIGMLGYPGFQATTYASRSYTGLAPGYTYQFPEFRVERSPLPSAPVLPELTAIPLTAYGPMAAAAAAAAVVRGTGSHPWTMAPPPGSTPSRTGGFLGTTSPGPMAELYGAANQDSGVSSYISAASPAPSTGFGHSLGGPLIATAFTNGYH
In the case of B1, the binding signal is reported as 0.338 enrichment R.
With B2 the binding signal was 0.517 enrichment R.
Work on B3 yielded a binding signal of 0.362 enrichment R.
B4 showed a binding signal of 0.397 enrichment R.
B5 was tested, and the binding signal was 0.224 enrichment R.
With B6 the binding signal was 0.224 enrichment R.
B7 showed a binding signal of 0.438 enrichment R.
For B8, the binding signal was 0.275 enrichment R.
B9 was tested, and the binding signal was 0.596 enrichment R.
With B10 the binding signal was 0.44 enrichment R.
B11 showed a binding signal of 1.96 enrichment R.
Binder B12 has a binding signal of 0.385 enrichment R.
With B13 the binding signal was 0.885 enrichment R.
In the case of B14, the binding signal is reported as 5.02 enrichment R.
For B15, the binding signal was 1.38 enrichment R.
Work on B16 yielded a binding signal of 0.307 enrichment R.
Binder B17 has a binding signal of 0.378 enrichment R.
B18 was tested, and the binding signal was 0.684 enrichment R.
For B19, the binding signal was 2.62 enrichment R.
With B20 the binding signal was 1.1 enrichment R.
In the case of B21, the binding signal is reported as 0.82 enrichment R.
In the case of B22, the binding signal is reported as 0.334 enrichment R.
